Assay results: PubChem BioAssay AID624417 (National Center for Advancing Translational Sciences (NCATS), 2012)
The whole screen tested about 410,000 compounds, of which about 6,400 (1.6%) were called active. Inconclusive means that the source gave no clear call. Such entries were picked first, then a sample of the others. Calls come from the whole dose curve; as a rule, active = well fitted inhibition curve with a large enough effect; inconclusive = small, poorly fitted or top-dose-only effect; inactive = no such curve, though single readings can be large or run the other way. No potency is given beside an inconclusive call; the fits are too rough.

target: Glucagon-like peptide 1 receptor (Homo sapiens) (UniProt P43220); assay: qHTS of GLP-1 Receptor Inverse Agonists (Inhibition Mode); conditions: HEK293 GLP-1R CRE-luciferase, luminescence, 24 h, GLP-1R form is constitutively active; series mostly up to 38.3 µM; note: nearly all actives have a fitted effect of over 55% in size
Sequence of UniProt P43220 (P43220 whole entry, looked up): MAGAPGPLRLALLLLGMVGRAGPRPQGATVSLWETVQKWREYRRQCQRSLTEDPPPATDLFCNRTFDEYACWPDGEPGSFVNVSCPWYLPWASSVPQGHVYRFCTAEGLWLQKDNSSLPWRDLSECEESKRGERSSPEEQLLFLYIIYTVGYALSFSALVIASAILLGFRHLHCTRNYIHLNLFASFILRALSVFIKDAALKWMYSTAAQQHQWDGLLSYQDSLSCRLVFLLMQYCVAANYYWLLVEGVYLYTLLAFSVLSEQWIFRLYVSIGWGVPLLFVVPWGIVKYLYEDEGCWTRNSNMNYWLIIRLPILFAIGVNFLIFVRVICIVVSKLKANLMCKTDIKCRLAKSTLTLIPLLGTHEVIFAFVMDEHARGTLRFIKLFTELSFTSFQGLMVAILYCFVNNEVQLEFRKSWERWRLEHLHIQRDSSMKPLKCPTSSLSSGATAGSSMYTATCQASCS
Outline: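 Readout was luciferase luminescence, measured 12 min after detection reagent at room temperature. Beforehand, GLP-1R reporter HEK293 cells had sat 12 h, then received compounds for 24 hr at 37 deg C.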
Potency is the fitted concentration of half-maximal effect; tags give direction and shape of the fitted curve.

Row | Compound | Potency
1 | Cc1cccc(C)c1NC(=O)NC1CCc2ccccc21 (stereo not given) | inactive
2 | CCn1c(SCc2ccccc2)nnc1-c1ccc(S(=O)(=O)N2CCCCC2)cc1 | inconclusive [inhibitor, partial curve]
3 | COc1ccc(CN2CCN(C(C)C(=O)NC(C)c3ccc(F)cc3)CC2)cc1F (stereo not given) | inconclusive [inhibitor, single point]
4 | COc1ccc(CN(C)C(=O)c2sccc2-c2ccccc2)c(OC)c1 | inconclusive [inhibitor, single point]
5 | CC(C)N(Cc1ccccc1)C(=S)Nc1ccccc1F | inconclusive [inhibitor, single point]
6 | CCCN(CCC)S(=O)(=O)c1ccc(N2CCCC2=O)c([N+](=O)[O-])c1 | inactive
7 | O=C(Nc1ccc(Cl)cn1)c1cccc(OCc2ccccc2)c1 | inconclusive [inhibitor, single point]
8 | CCOC(=O)C1(C)CCCCCN1C(=O)c1ccc(OC)c(C(F)(F)F)c1 (stereo not given) | inconclusive [inhibitor, single point]
9 | Cc1ccc(/C=C/c2ccc(=O)n(Cc3ccccc3Cl)n2)cc1 | inactive
10 | CCCCSc1nc2c(c(=O)n1CC)SC(C)C2 (stereo not given) | inconclusive [inhibitor, single point]
11 | CC1CN(C(=O)Nc2ccc(C(=O)NCCc3ccccc3)cc2)c2ccccc2S1 (stereo not given) | inconclusive [inhibitor, single point]
12 | Cc1ccccc1-c1nc(C#N)c(N2CCC(C)CC2)o1 | inconclusive [inhibitor, partial curve, poor fit]
13 | COc1ccc(-c2c(C)n([O-])c(C)c(C)[n+]2=O)cc1OC | inactive
14 | Cc1cc2ncn(CCOc3ccccc3)c2cc1C | inconclusive [inhibitor, single point]
15 | CCOC(=O)c1ccc(NC(=O)c2cccc(S(=O)(=O)N3c4ccccc4CC3C)c2)s1 (stereo not given) | inconclusive [inhibitor, partial curve]
16 | Cc1ccsc1C(=O)OCC(=O)c1ccc(OC(F)F)cc1 | inconclusive [inhibitor, single point]
17 | CCc1nc2c(OCc3cccc(Cl)c3)cccn2c1N(C)C(=O)CC(C)C | inconclusive [inhibitor, partial curve]
18 | Cn1cc(CN(C(=O)Nc2ccc(Cl)c(Cl)c2)C2CCCCC2)c2ccccc21 | inactive
19 | COC(=O)c1scc(-c2ccccc2)c1S(=O)(=O)Nc1ccccc1 | inconclusive [inhibitor, partial curve, poor fit]
20 | COc1ccccc1OCCNC(=O)Nc1ccc(Br)cc1 | inconclusive [inhibitor, partial curve, poor fit]
21 | COc1cc(NC(=O)Cc2ccc(S(=O)(=O)N3CCOCC3)s2)c(OC)cc1Cl | inconclusive [inhibitor, partial curve, poor fit]
22 | Cc1cccc(NC(=O)N2CCCCCC2)c1 | inconclusive [inhibitor, full curve, poor fit]

Row | Compound | Potency
23 | COc1ccc(-n2c(/C=C/c3ccccc3F)nc3cc(OC)c(OC)cc3c2=O)cc1Cl | inconclusive [inhibitor, partial curve, poor fit]
24 | O=C1c2ccccc2C(=O)C1(c1ccccc1)N1CCN(c2cccc(Cl)c2)CC1 | inconclusive [inhibitor, partial curve, poor fit]
25 | CCOc1ccc(C(c2c(NC(=O)c3ccco3)sc(C)c2C)N2CCOCC2)cc1 (stereo not given) | inconclusive [inhibitor, partial curve, poor fit]
26 | CCN(CC)C(=O)n1cnc(-c2ccccc2)c1-c1ccccc1 | inconclusive [inhibitor, partial curve, poor fit]
27 | Cc1ccc(OCCOc2ccc(Cl)cc2Cl)c([N+](=O)[O-])n1 | inconclusive [inhibitor, single point]
28 | O=C(NCc1ccc(F)cc1)c1ccc(CSCc2cccc(Cl)c2)o1 | inconclusive [inhibitor, single point]
29 | O=C1C=C(c2ccc(Oc3ccccc3)cc2)C[C@@H](c2ccc(Cl)cc2)C1 | inconclusive [inhibitor, single point]
30 | CN(CCCNC(=O)C1CCC(CNS(=O)(=O)c2ccccc2)CC1)Cc1ccccc1 (stereo not given) | active: 3.55 µM
31 | O=C(CSc1ccc(F)cc1)Nc1ccc(N2CCOCC2)c(Cl)c1 | inconclusive [inhibitor, partial curve, poor fit]
32 | CCn1cc(CNCc2cn(C)nc2-c2ccc(C3CCCCC3)cc2)cn1 | inconclusive [inhibitor, partial curve]
33 | Cc1ccc(S(=O)(=O)N2CC3(O)CN(C(=O)OC(C)C)N(C(=O)OC(C)C)CC3(OC(=O)NCc3ccccc3F)C2)cc1 (stereo not given) | inconclusive [inhibitor, single point]
34 | CCCn1c(SCN2C(=O)c3ccccc3C2=O)nc2cc(Cl)ccc2c1=O | inactive
35 | CC(C)N(CCc1ccncc1)C(=S)Nc1cccc(Cl)c1 | inconclusive [inhibitor, single point]
36 | O=C(c1ccc(CSc2ccccc2)cc1)N1CCN(c2ccccc2)CC1 | inconclusive [inhibitor, partial curve, poor fit]
37 | Cc1ccc(C2=Nc3ccc(Br)cc3C(c3ccncc3)=NN2)cc1 | inconclusive [inhibitor, single point]
38 | CCCCCCCCNC(=O)C(CCC(=O)OCc1ccccc1)NC(C)=O (stereo not given) | inconclusive [inhibitor, partial curve, poor fit]
39 | COc1ccc(C(C(=O)NC2CCCCC2)N(Cc2cccs2)C(=O)Cc2c[nH]c3ccccc23)cc1 (stereo not given) | inconclusive [inhibitor, single point]
40 | Cc1ccc(NNC(=O)C(=O)N2CCCCC2)cc1 | inconclusive [inhibitor, full curve, poor fit]
41 | CCCCCCNC(=O)Cc1ccc(Br)cc1 | inconclusive [inhibitor, single point]
42 | COC(=O)C1=CN(Cc2ccc(OC)cc2)C=C(C(=O)OC)C1c1cccs1 | inconclusive [inhibitor, single point]
43 | COc1cc(-c2ccno2)ccc1S(=O)(=O)N1CCN(c2cc(C)ccc2C)CC1 | inconclusive [inhibitor, single point]
44 | O=C(CSc1nnnn1-c1ccccc1)Nc1nsc(-c2ccc(Cl)cc2)n1 | inconclusive [inhibitor, single point]

Row | Compound | Potency
45 | Oc1c(Br)cc(Br)cc1CNc1nccs1 | inconclusive [inhibitor, single point]
46 | CC1(C)Oc2ccccc2OC1(O)c1ccc2ccccc2n1 (stereo not given) | inconclusive [inhibitor, partial curve, poor fit]
47 | COc1ccc(N2CCN(C(=O)CCC(=O)c3cc(C)sc3C)CC2)cc1 | inconclusive [inhibitor, partial curve, poor fit]
48 | S=c1[nH]nc(C23CC4CC(CC(C4)C2)C3)n1Cc1ccco1 | active: 7.94 µM
49 | COc1ccc(-n2c(C)n[nH]c2=O)cc1 | inactive
50 | CCN(CC)CCNC(=O)C12CC3CC(C)(CC(C)(C3)C1)C2 | inconclusive [inhibitor, partial curve, poor fit]
51 | O=C(Nc1cccc(S(=O)(=O)N2CCCCC2)c1)c1c2c(nc3ccccc13)CCN(Cc1ccccc1)C2 | inconclusive [inhibitor, single point]
52 | COc1ccc2nc(NC(=O)CCn3cccc3)sc2c1 | inconclusive [inhibitor, single point]
53 | CCOc1ccc(C(=O)CCC(=O)N2CCN(c3ccc(O)cc3)CC2)cc1 | inconclusive [inhibitor, full curve]
54 | O=C(c1cccc([N+](=O)[O-])c1)N1CCN(c2cccc(Cl)c2)CC1 | inconclusive [inhibitor, partial curve, poor fit]
55 | Cc1nc2c(OCc3ccc(Cl)cc3Cl)cccn2c1N(C)CC1CC1 | inconclusive [inhibitor, single point]
56 | COc1cccc(NC(=O)NC2CCCCC2C)c1 (stereo not given) | inconclusive [inhibitor, single point]
57 | CCc1nc2c(OCCOc3ccc(F)cc3)cccn2c1N(C)C(=O)c1ccccc1F | inconclusive [inhibitor, single point]
58 | O=C(NC(c1ccccc1)c1ccc2ccccc2n1)C1CCN(Cc2ccc(Oc3ccccc3)cc2)CC1 (stereo not given) | inconclusive [inhibitor, single point]
59 | CN(c1ccccc1)P(=O)(N(C)c1ccccc1)N(C)c1ccccc1 | inconclusive [inhibitor, single point]
60 | CCN1CCN(C(=O)c2cnn(-c3ccc(F)cc3)c2-n2cccc2)CC1 | inactive
61 | CC1Cc2ccccc2N1CC(=O)Nc1cc(S(=O)(=O)N2CCOCC2)ccc1Cl (stereo not given) | inconclusive [inhibitor, single point]
62 | O=C(O)c1ccc(C2CCCCC2)cn1 | inactive
63 | COc1ccc(S(=O)(=O)Nc2ccccn2)cc1 | inactive
64 | O=C1NC[C@@H](CCCCN2CCN(CCC3CCCCC3)C(=O)C2=O)N(CC2CCCCC2)C1=O | inactive
65 | COC(=O)C1=C(O)/C(=C\c2cc(C)n(-c3ccc(F)cc3)c2C)N=C1C | inactive
